In the supplement of paper PMC7125110:
± gives the standard error. For some of these results: Variants at the background level are over-represented here.

B1: glmS ribozyme (parent)
chain: AUAAAAGCGCCAGAACUACAGAAAUGUAGUUGACGAGGAGGAGGUUUAUCGAAUUUUCGGCGGAUGCCUCCAAA

Experiments:
Settings in all cases: with glucosamine-6-phosphate
glucosamine-6-phosphate [1] = variants of: B1; test: self-cleavage kobs at 40 uM GlcN6P; higher = faster cleavage; RNA array
Outline: (§1)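 Using a hybridised Cy3 probe at 37 °C, barcoded ribozyme variants transcribed in situ by E. coli RNA polymerase on sequenced MiSeq chips were monitored across tiles imaged over ~14 h. The flow contained glucosamine-6-phosphate from 40 μM to 10 mM in HEPES/KCl/Mg(OAc)2 buffer. Signals were normalised to baseline and to non-cleaving reference variants before per-tile medians were fit to one- or two-exponential decays to yield kobs. Weighted Michaelis–Menten fits across concentrations gave kcat and KM.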

glucosamine-6-phosphate [2] = variants of: B1; test: self-cleavage kobs at 640 uM GlcN6P; higher = faster cleavage; RNA array
Outline: as §1

glucosamine-6-phosphate [3] = variants of: B1; test: self-cleavage kobs at 10000 uM GlcN6P; higher = faster cleavage; RNA array
Outline: as §1

glucosamine-6-phosphate [4] = variants of: B1; test: self-cleavage kobs at 160 uM GlcN6P; higher = faster cleavage; RNA array
Outline: as §1

glucosamine-6-phosphate [5] = variants of: B1; test: self-cleavage kobs at 2500 uM GlcN6P; higher = faster cleavage; RNA array
Outline: as §1

Row | Variant | self-cleavage kobs at 40 uM GlcN6P (glucosamine-6-phosphate [1]) [s⁻¹] | self-cleavage kobs at 640 uM GlcN6P (glucosamine-6-phosphate [2]) [s⁻¹] | self-cleavage kobs at 10000 uM GlcN6P (glucosamine-6-phosphate [3]) [s⁻¹] | self-cleavage kobs at 160 uM GlcN6P (glucosamine-6-phosphate [4]) [s⁻¹] | self-cleavage kobs at 2500 uM GlcN6P (glucosamine-6-phosphate [5]) [s⁻¹]
1 | G29U G43C | < 1e-05 | < 1e-05 | < 1e-05 | – | –
2 | G32A C71U | 3.68e-05 ± 5.2e-06 | 0.000487 ± 4.1e-05 | 0.00326 ± 0.00033 | 0.000159 ± 1.6e-05 | 0.00122 ± 0.00011
3 | G29C U54C | 6.42e-05 ± 1.4e-05 | 0.000301 ± 7.9e-05 | 0.0019 ± 0.00032 | 0.000153 ± 2.5e-05 | 0.000773 ± 0.00014
4 | C16G U30G C58G | < 1e-05 | – | – | – | –
5 | A15U A33C U69G | < 1e-05 | < 1e-05 | < 1e-05 | – | –
6 | C16G G40A A64C | < 1e-05 | – | < 1e-05 | – | –
7 | G29U A39C U57C | < 1e-05 | – | – | – | –
8 | A15U C16G G32C | < 1e-05 | – | – | – | –
9 | C19A A36U G44A U45G | < 1e-05 | – | < 1e-05 | – | –
10 | G29U G44A | < 1e-05 | – | – | – | –
11 | A14U G29U A36G G40A U46G | < 1e-05 | – | – | – | –
12 | A15U G32C C34A | < 1e-05 | – | – | – | –
13 | C16U G29C A33G | < 1e-05 | – | < 1e-05 | – | –
14 | U31G A36G | < 1e-05 | – | – | < 1e-05 | –
15 | A15U G41U A42G U57C C70A | < 1e-05 | – | – | – | –
16 | A15G U45A | 0.00128 ± 0.00026 | – | – | – | –
17 | A14C G41C | < 1e-05 | – | – | < 1e-05 | –
18 | A14G G32C U49A | < 1e-05 | – | < 1e-05 | – | –
19 | U31C A33G | < 1e-05 | < 1e-05 | < 1e-05 | < 1e-05 | –
20 | U31C U49C C67U | < 1e-05 | – | – | – | –
21 | C16G U45A | 0.000245 ± 3.1e-05 | – | – | – | –
22 | A15C U57G | < 1e-05 | – | – | < 1e-05 | –
23 | A18G | 0.00161 ± 0.00045 | – | 0.0231 ± 0.01 | – | –
24 | G29C U46A G63U | < 1e-05 | – | – | – | –
25 | U31G U65C | < 1e-05 | – | – | – | –
26 | A14G U49G | 7.8e-05 ± 1.6e-05 | 0.000937 ± 0.00022 | 0.00302 ± 0.00044 | – | 0.00109 ± 0.0003
27 | A15U A53G | 0.00019 ± 1.8e-05 | 0.0015 ± 0.0002 | 0.00681 ± 0.00053 | 0.000531 ± 6.8e-05 | 0.00373 ± 0.00055
28 | U30A G44A | < 1e-05 | – | – | – | –
29 | U30A G66C C70G | < 1e-05 | – | – | – | –
30 | A14G G29C G40A C58U | < 1e-05 | < 1e-05 | – | – | –
